# PubChem BioAssay AID2675 (National Center for Advancing Translational Sciences (NCATS), 2010)
# The campaign covered roughly 280,000 compounds. About 100 (0.036%) were called active. The inconclusive results got no clear call from the source; some entries with a clear call stand among them for comparison. Calls come from the whole dose curve; as a rule, active = well fitted inhibition curve with a large enough effect in the signal ratio, with a control signal flat (not every such curve was filed as active); inconclusive = small, poorly fitted or top-dose-only effect, or effect the other way, or a change in a side signal; inactive = no such curve, though single readings can be large or run the other way; the % refers to the signal ratio. A potency beside an inconclusive call is a rough fit, not a confirmed value. A note “side channel” means that the fit belongs to a control or component signal, not to the main read-out.
# Molecular target: Muscleblind-like protein 1 (Homo sapiens) (UniProt Q9NR56)
# Sequence of UniProt Q9NR56 (Q9NR56 whole entry, looked up): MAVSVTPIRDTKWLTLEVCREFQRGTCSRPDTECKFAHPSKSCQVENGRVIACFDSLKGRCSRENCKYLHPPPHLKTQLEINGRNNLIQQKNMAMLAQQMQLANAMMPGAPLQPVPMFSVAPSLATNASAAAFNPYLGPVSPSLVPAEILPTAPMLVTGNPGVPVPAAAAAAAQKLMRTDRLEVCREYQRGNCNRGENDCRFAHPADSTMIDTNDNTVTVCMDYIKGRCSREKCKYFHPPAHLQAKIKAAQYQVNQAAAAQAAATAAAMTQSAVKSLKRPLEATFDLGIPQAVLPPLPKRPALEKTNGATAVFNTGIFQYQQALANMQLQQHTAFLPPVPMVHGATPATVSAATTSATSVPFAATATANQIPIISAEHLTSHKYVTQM
# Assay: qHTS Assay for Inhibitors of MBNL1-poly(CUG) RNA binding
# Settings: TR-FRET MBNL1-His/biotin-(CUG)12 binding, 665/545 ratio; activity change, negative = inhibition: at 57.5 µM (top of the series)
# Summary of the method: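 Inhibition of protein-RNA binding appears as loss of TR-FRET between terbium anti-His antibody on MBNL1-His and streptavidin-XL665 on biotin-(CUG)12. Activity is normalized to buffer-only and uninhibited-complex controls.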
# % is set by controls: 0 for no effect and ±100 for the full control effect; potency is the fitted concentration of half-maximal effect; tags give direction and shape of the fitted curve or compound fluorescence and quenching.
SMILES,Potency,"activity change, negative = inhibition"
O=S(=O)(c1cccc2nonc12)N1CCN(c2ccccc2F)CC1,"inconclusive: 11.2 µM [quencher, side channel, partial curve]",
CC(C(=O)NC1C=CS(=O)(=O)C1)N1C(=O)/C(=C\c2ccccc2)SC1=S (stereo not drawn),"inconclusive: 12.6 µM [quencher, side channel, partial curve]",
COCCCn1c(-c2ccccc2Cl)n[nH]c1=S,,inactive: -12.6%
COc1ccc(/C=C/C(=O)NCCSCc2ccco2)cc1,"inconclusive: 7.08 µM [quencher, side channel, single point]",
CCOc1cc(/C=C2/NC(=O)N(CC(=O)OC)C2=O)ccc1OC,"inconclusive: 7.08 µM [quencher, side channel, partial curve]",
COc1ccc2c(c1O)C(=O)c1ccccc1C2=O,"inconclusive: 1.58 µM [quencher, full curve, poor fit]",
CN1CCN(C(=S)c2ccc(OCC(=O)Nc3cccc(C(F)(F)F)c3)cc2)CC1,"inconclusive: 3.55 µM [fluorescent, side channel, single point]",
CCOc1ccc(/C(O)=C2/C(=O)C(=O)N(c3ncccn3)C2c2ccc(Cl)cc2)cc1 (stereo not drawn),"inconclusive: 31.6 µM [quencher, side channel, single point]",
CC1=C(C(=O)OCc2ccccc2)C(c2ccc(Cl)cc2Cl)NC(=O)N1CCCC(=O)O (stereo not drawn),"inconclusive: 0.251 µM [inhibitor, full curve, poor fit]",
COc1cc(C(=O)N/N=C/c2ccc(OC)c(CN3CCN(c4ccc(F)cc4)CC3)c2)ccc1O,active: 31.6 µM,
CN(C)S(=O)(=O)c1ccc(C(=O)Nc2nnc(Cc3ccccc3)s2)cc1,,inactive: 1.87%
CC1(C)CC(=O)C2=C(C1)OC(N)=C(C#N)C2c1cccc(OC(=O)c2ccco2)c1 (stereo not drawn),,inactive: -3.66%
CC(C)(CNC(=O)c1ccc([N+](=O)[O-])c(Cl)c1)CNC(=O)c1ccc([N+](=O)[O-])c(Cl)c1,"inconclusive: 11.2 µM [quencher, side channel, partial curve, poor fit]",
CCOC(=O)c1c(-c2cccc([N+](=O)[O-])c2)csc1NC(=O)C1CC1,,inactive: 26.8%
COc1cc(N=Cc2c(CO)cnc(C)c2O)cc(OC)c1OC,"inconclusive: 39.8 µM [quencher, side channel, single point]",
C[n+]1ccc(/C=C/c2c[nH]c3ccc(F)cc23)cc1,"inconclusive: 3.55 µM [quencher, side channel, full curve]",
O=C(O)CCCCCNc1ccc2nsnc2c1[N+](=O)[O-],"inconclusive: 4.47 µM [quencher, side channel, partial curve]",
CCC(C(=O)NC(C)(C)C)N(Cc1ccc(F)cc1)C(=O)c1snc(C(N)=O)c1N (stereo not drawn),"inconclusive: 31.6 µM [quencher, side channel, partial curve]",
CC1(C)CC(NC(=O)c2cc([N+](=O)[O-])cc([N+](=O)[O-])c2)CC(C)(C)N1,"inconclusive: 1.41 µM [quencher, side channel, full curve]",
C=CCn1c(O)c(N=NC(=S)Nc2cccc(OC)c2)c2ccccc21,"inconclusive: 25.1 µM [quencher, side channel, partial curve]",
COc1ccc(CCNC(=O)CSc2nnc3ccc(-c4ccncc4)nn23)cc1,"inconclusive: 14.1 µM [quencher, side channel, partial curve]",

SMILES,Potency,"activity change, negative = inhibition"
CC(=O)Nc1ccc(N2C(=O)c3ccc(S(=O)(=O)c4ccc(C(=O)O)cc4)cc3C2=O)cc1,,inactive: 0.0613%
O=C(NC(Cc1ccccc1)C(=O)O)/C(=C/c1ccc([N+](=O)[O-])cc1)NC(=O)c1ccc(Br)o1 (stereo not drawn),"inconclusive: 28.2 µM [quencher, side channel, partial curve]",
Cc1ccc(OCC(=O)Nc2ccc(C(=O)O)cc2NC(=O)COc2ccc(C)c(C)c2)cc1C,,inactive: 6.17%
CCOc1cc(C2C(C(=O)OC)=CN(C3CCCC3)C=C2C(=O)OC)cc(Br)c1O,"inconclusive: 5.01 µM [fluorescent, side channel, single point]",
CCc1nnc(NC(=O)c2ccc(S(=O)(=O)N3CCCC(C)C3)cc2)o1 (stereo not drawn),,inactive: 3.77%
COC(=O)c1c(Cl)c2n3ccccc3c(C)c(-c3ccccc3)c-2c1C(=O)OC,"inconclusive: 25.1 µM [quencher, side channel, partial curve, poor fit]",
O=C(CN1C(=O)C(=O)N(Cc2ccco2)C1=O)c1c[nH]c2ccccc12,,inactive: -20.4%
COC(=O)c1ccc(SCC(=O)NCc2ccccc2)c([N+](=O)[O-])c1,"inconclusive: 8.91 µM [quencher, side channel, partial curve]",
CN1CCN(C(=O)/C=C/c2ccc([N+](=O)[O-])cc2)CC1,"inconclusive: 14.1 µM [quencher, side channel, partial curve]",
CCOC(=O)N1CCC(=NNc2ccc(S(N)(=O)=O)cc2[N+](=O)[O-])CC1,"inconclusive: 14.1 µM [quencher, partial curve]",
CC1CCN(S(=O)(=O)c2ccc(N=NC3=C(O)CC(C)(C)CC3=O)cc2)CC1,"inconclusive: 0.631 µM [quencher, side channel, full curve]",
O=C1CCCC2=C1C(c1ccc(O)c(O)c1)Nc1ccc3ncccc3c12 (stereo not drawn),"inconclusive: 25.1 µM [quencher, side channel, partial curve]",
O=C(c1ccc(S(=O)(=O)N2CCCC2)cc1)N1CCC(CN2C(=O)c3cccc4cccc(c34)C2=O)CC1,,inactive: 3.44%
O=C1C=C(N2CCCCCC2)C(=O)N1c1ccc(Cl)cc1,"inconclusive: 31.6 µM [quencher, side channel, single point]",
OCCC1CN(Cc2cc(F)ccc2F)CCN1CCCc1ccccc1 (stereo not drawn),,inactive: 1.8%
O=C(Cc1ccc([N+](=O)[O-])cc1)NCc1cccnc1,"inconclusive: 12.6 µM [quencher, side channel, partial curve]",
CCOC(=O)c1ccc(-n2cc(C(=O)c3cccnc3)nn2)cc1,,inactive: -3.41%
COc1ccc(Cn2c(=O)[nH]c3cc(C(=O)NCCCN4CCCC4)ccc3c2=O)cc1,,inactive: 0.245%
CCn1cc(CNCc2cn[nH]c2-c2cc3ccccc3o2)cn1,"inconclusive: 39.8 µM [fluorescent, side channel, single point]",
CCCCCOC(=O)c1[nH]c2c(c1C)C(=O)C(C(=O)OC)C(C)C2 (stereo not drawn),,inactive: 5.41%
CC(C)(C#N)NC(=O)C(=O)c1c(-c2ccccc2)cc2ccccn12,"inconclusive: 12.6 µM [quencher, side channel, partial curve]",

SMILES,Potency,"activity change, negative = inhibition"
COc1ccc(CC(=O)N2CC(C)CC(C)C2)cc1 (stereo not drawn),,inactive: 0.502%
CCC1CCCCN1CC(=O)Nc1cc(C)nn1-c1nc(C)cc(C)n1 (stereo not drawn),,inactive: -5.92%
COc1ccc(C(=O)c2oc3nc(C)cc(C)c3c2N)cc1,"inconclusive: 25.1 µM [quencher, side channel, partial curve]",
O=C(NCc1ccccc1)C1CCCN(S(=O)(=O)c2cccc3nsnc23)C1 (stereo not drawn),"inconclusive: 7.08 µM [quencher, side channel, partial curve]",
COc1cc2c(cc1OC)C(=O)Cc1ccc3c(c1CN(C)CC2)OCO3,,inactive: -4.78%
COc1ccc2nc(Nc3nc(CSc4nc5ccccc5[nH]4)cc(=O)[nH]3)nc(C)c2c1,"inconclusive: 5.01 µM [quencher, side channel, single point]",
O=C1NC(=Nc2cccc([N+](=O)[O-])c2)SC1(CO)CO,"inconclusive: 14.1 µM [quencher, side channel, partial curve]",
COc1ccc(NC(=O)C2CCN(c3nc(C)cc(C)n3)CC2)cc1,"inconclusive: 79.4 µM [inhibitor, partial curve]",
O=C(Nc1ccccc1)Nc1cccc(Cl)c1Cl,,inactive: -0.715%
CCCCOC(=O)Nc1ccc2c(C)cc(=O)oc2c1,"inconclusive: 8.91 µM [quencher, side channel, single point]",
O=C(O)c1cccc(Nc2nc(-c3cc4ccccc4oc3=O)cs2)c1,"inconclusive: 28.2 µM [quencher, single point]",
COc1ccc(CCC(=O)NNC(=S)NCc2ccc(F)cc2)cc1,,inactive: -1.33%
O=C(Nc1nc(-c2ccccn2)cs1)C1COc2ccccc2O1 (stereo not drawn),"inconclusive: 3.98 µM [fluorescent, side channel, partial curve]",
CCOC(=O)c1cn(-c2ccccc2)nc1-c1ccncc1,,inactive: -5.74%
c1ccc2c(c1)Cc1cc3ccccc3nc1-2,"inconclusive: 12.6 µM [quencher, side channel, partial curve]",
Cc1ccc(NS(=O)(=O)c2c(C(=O)N3CCCCCC3)c(C)n(C)c2C)cc1C,,inactive: -6.33%
COc1cc(/C=C(/C#N)c2ccc(F)cc2)ccc1OCc1ccc(C(=O)O)o1,"inconclusive: 22.4 µM [quencher, single point]",
O=C(NCCC1=CCCCC1)C(=O)NCC1OCCCN1S(=O)(=O)c1cc(F)ccc1F (stereo not drawn),,inactive: -2.13%
O=C(O)c1ccc2nc3c(nc2c1)-c1ccccc1C3=O,"inconclusive: 1.78 µM [quencher, side channel, full curve]",
CCOC(=O)N1CCN(C(=O)COc2ccc([N+](=O)[O-])cc2)CC1,"inconclusive: 31.6 µM [quencher, side channel, single point]",
O=C(N/C(=C\c1cccc([N+](=O)[O-])c1)C(=O)N1CCOCC1)c1ccco1,"inconclusive: 28.2 µM [quencher, single point]",
